According to PubChem BioAssay AID886 (National Center for Advancing Translational Sciences (NCATS), 2007):
About 2,500 (3.4%) of roughly 73,000 compounds were called active. This list was built around the results that the source calls inconclusive (neither active nor inactive); the mix of calls is not that of the screen. Calls come from the whole dose curve; as a rule, active = well fitted inhibition curve with a large enough effect; inconclusive = small, poorly fitted or top-dose-only effect; inactive = no such curve, though single readings can be large or run the other way. A potency beside an inconclusive call is a rough fit, not a confirmed value.

What follows are compounds tested against 3-hydroxyacyl-CoA dehydrogenase type-2 (Homo sapiens) (UniProt Q99714) (assay: qHTS Assay for Inhibitors of HADH2 (Hydroxyacyl-Coenzyme A Dehydrogenase, Type II)). Conditions: recombinant HADH2, NADH fluorescence, beta-hydroxybutyryl-CoA; activity change, negative = inhibition: at 57.1 µM (top of the series).
Outline: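 Read-out: 360 nm excitation, 450 nm emission, kinetic over 4 min. Conditions: His-tagged human HADH2 20 nM, pH 9.0 Tris with Tween-20, 1 mM NAD+, 90 uM beta-hydroxybutyryl-CoA.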
% is set by controls: 0 for no effect and ±100 for the full control effect; potency is the fitted concentration of half-maximal effect; tags give direction and shape of the fitted curve.
Note: nearly all actives have a fitted effect of over 60% in size.

Chain of UniProt Q99714 (Q99714 whole entry, looked up): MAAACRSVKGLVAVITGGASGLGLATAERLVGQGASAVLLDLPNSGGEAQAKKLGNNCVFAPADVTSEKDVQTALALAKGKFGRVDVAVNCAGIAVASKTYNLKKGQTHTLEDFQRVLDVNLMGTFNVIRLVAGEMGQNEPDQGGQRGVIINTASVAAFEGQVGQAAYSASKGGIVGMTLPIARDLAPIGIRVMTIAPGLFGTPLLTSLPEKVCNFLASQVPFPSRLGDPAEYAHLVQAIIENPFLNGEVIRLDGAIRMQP
Chain of UniProt Q99714 (Q99714 whole entry, looked up): as above

Compound | Potency | activity change, negative = inhibition
CC1(C)CC(=O)C(C=Nc2ccc3cn[nH]c3c2)=C(O)C1 | inconclusive: 31.6 µM [inhibitor, single point] | –
O=C(NCc1ccco1)Nc1cccs1 | inconclusive: 31.6 µM [inhibitor, single point] | –
CC(=O)OCC(=O)[C@@]12OC(C)(C)O[C@@H]1C[C@H]1[C@H]3C[C@H](F)C4=CC(=O)C=C[C@@]4(C)[C@]3(F)[C@H](O)C[C@@]12C | inactive | –
CC(C)NC[C@H](O)c1ccc(O)c(O)c1 | active: 0.1 µM | –
COCCCNC(=O)C1CCN(S(=O)(=O)c2c(C)noc2/C=C\c2ccc(OC)cc2)CC1 | inconclusive: 7.94 µM [inhibitor, single point] | –
C=CCn1cnc2c(NCc3ccccc3)ncnc21 | inactive | –
OC(COCc1cccs1)CN1CCCCCC1 (configuration not stated) | inactive | –
O=C(NCCN1CCOCC1)c1ccc2c(c1)N(Cc1ccccc1)C(=O)CS2 | inactive | –
COc1cc(-c2nnc3sc(-c4ccccn4)nn23)cc(OC)c1OC | inconclusive: 31.6 µM [inhibitor, single point] | –
Cc1nc(-c2ccc(NC(=O)c3cccs3)cc2)cs1 | inconclusive: 39.8 µM [inhibitor, single point] | –
CNC[C@@H](SC)c1ccc(O)c(O)c1 | active: 0.398 µM | –
COc1ccc2c(-c3ccccc3)cc(N3CCOCC3)nc2c1 | inconclusive: 39.8 µM [inhibitor, single point] | –
CCOC(=O)c1[nH]c2ccc(OCC)cc2c1NC(=O)CN1CCN(c2ccccc2)CC1 | inconclusive: 39.8 µM [inhibitor, single point] | –
Cc1cc(=O)[nH]c(SCCOc2ccc(OC(C)C)cc2)n1 | inactive | –
Cc1ccc2[nH]c(=S)cc(C)c2c1 | inconclusive: 1 µM [inhibitor, full curve] | –
CCC(O)c1cc2c(cc1NC(=O)c1ccc(C)cc1)OCCO2 (configuration not stated) | inconclusive: 31.6 µM [inhibitor, single point] | –
CCN(CC)c1ccc(-c2c(C#N)c(N)nc(OC)c2C#N)cc1 | active: 31.6 µM | –
Cc1ccc2c(c1)[nH]c1c(=O)n(CCN3CCCCC3)cnc12 | inconclusive: 6.31 µM [inhibitor, single point] | –
O=C(C1CCCCC1)N1CCN=C1SCc1cccnc1 | inconclusive: 25.1 µM [inhibitor, single point] | –
COc1ccc(NC(=O)C2CC(c3cc(OC)c(OC)c(OC)c3)=NO2)cc1OC (configuration not stated) | inconclusive: 39.8 µM [inhibitor, single point] | –
O=C(O)[C@@H](O)[C@@H](O)[C@@H](O)[C@@H](O)c1nc2ccccc2s1 | inconclusive: 0.794 µM [inhibitor, full curve] | –
O=c1c(CCc2ccccc2)nc2cncnc2n1-c1ccccc1 | inactive | –
CCOc1ccccc1NC(=O)c1cc(Cl)ccc1NC(=O)c1ccco1 | inactive | –
c1cc(NC2CC2)nc(-c2ccoc2)n1 | inconclusive: 7.94 µM [inhibitor, full curve] | –

Compound | Potency | activity change, negative = inhibition
COc1ccc(C(=O)C(OC(=O)CNC(=O)c2ccco2)c2ccccc2)cc1 (configuration not stated) | inconclusive: 39.8 µM [inhibitor, single point] | –
CCOC(=O)c1sc(NC(=O)c2ccco2)nc1C | inactive | –
COc1ccc(CC(=O)n2nc(-c3ccccc3)nc2NCc2ccco2)cc1 | inconclusive: 31.6 µM [inhibitor, single point] | –
CC(=C1C(=O)c2ccccc2C1=O)N1CCN(c2ccccn2)CC1 | inconclusive: 7.94 µM [inhibitor, partial curve] | –
CCc1ccccc1N1CSC2=C(C#N)C(c3cc(OC)c(OC)cc3OC)CC(=O)N2C1 (configuration not stated) | inconclusive: 1 µM [inhibitor, full curve] | –
COc1ccc(-c2nc(C#N)c(N3CCCCCC3)o2)cc1OC | inconclusive: 39.8 µM [inhibitor, single point] | –
CCOc1cc(-c2nc(-c3ccc(OC)cc3)no2)cc(OCC)c1OCC | – | inactive: 3.16% [at 11.4 µM]
Cc1ccc(C)c(C(=O)NC2CC(C)(C)NC(C)(C)C2)c1 | inconclusive: 31.6 µM [inhibitor, single point] | –
CN(/N=C\c1ccccc1O)c1ccc2ccccc2n1 | – | inactive: 9.29% [at 11.4 µM]
CCCC(=O)Nc1ccc(NC(=O)CCc2ccccc2)cn1 | inactive | –
CCCn1c2c(c(O)c(C(=O)Nc3ccccn3)c1=O)CCCC2 | inactive | –
O=C1OC2(c3cc(Br)c(O)c(Br)c3Oc3c2cc(Br)c(O)c3Br)c2c(Cl)c(Cl)c(Cl)c(Cl)c21 | active: 15.8 µM | –
O=C(Nc1nc(-c2cccs2)c(-c2ccccc2)s1)c1ccco1 | inconclusive: 39.8 µM [inhibitor, single point] | –
Cc1ccc(C2CC(c3ccccc3C)n3nc(N)nc3N2)cc1 (configuration not stated) | inactive | –
O=C(NCc1ccccc1)c1ccc(OC2CSC2)cc1 | inconclusive: 25.1 µM [inhibitor, partial curve] | –
CCCc1cc(=O)[nH]c(SCC(=O)Nc2cc3c(cc2C(C)=O)OCO3)n1 | inconclusive: 39.8 µM [inhibitor, single point] | –
CCOC(=O)c1cc2c(=O)n3ccccc3nc2n(CCCOC)c1=NC(=O)c1cccnc1 | active: 31.6 µM | –
O=C(O)[C@@H]1[C@@H]2C[C@H]3c4[nH]c5ccccc5c4CCN3C[C@@H]2CC[C@@H]1O | inconclusive: 39.8 µM [inhibitor, single point] | –
CCn1c(SCC(=O)c2[nH]c(C)c(C(C)=O)c2C)nnc1-c1ccncc1 | inconclusive: 31.6 µM [inhibitor, single point] | –
N#CC1=C(N)SC(N)=C(C#N)C1c1ccnc2ccccc12 | active: 0.794 µM | –
Cc1cc(C)cc(Nc2ccc(C(=O)O)cc2N)c1 | inconclusive: 31.6 µM [inhibitor, single point] | –
CCN(C(=O)c1cnc(N2CCN(c3ncccn3)CC2)c2ccccc12)c1cccc(Cl)c1 | active: 39.8 µM | –
NC(=O)c1c(NC(=O)C2CCCO2)sc2c1CCC2 (configuration not stated) | inconclusive: 31.6 µM [inhibitor, single point] | –
